{"source": "paper PMC6919601", "about": "“Identification of Plasmodium dipeptidyl aminopeptidase allosteric inhibitors by high throughput screening” (PLoS ONE, 2019)", "note": "Hit rate of the full screen: of about 110,000 compounds, about 230 (0.21%) showed an effect of 50% or more. Some of the results follow.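 Further: 30 min substrate incubation versus DMSO and 10 µM JCP410 controls.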", "data": [{"target": "DPAP1 (Plasmodium falciparum, UniProt Q8IIJ9)", "sequence (Q8IIJ9 whole entry, looked up)": "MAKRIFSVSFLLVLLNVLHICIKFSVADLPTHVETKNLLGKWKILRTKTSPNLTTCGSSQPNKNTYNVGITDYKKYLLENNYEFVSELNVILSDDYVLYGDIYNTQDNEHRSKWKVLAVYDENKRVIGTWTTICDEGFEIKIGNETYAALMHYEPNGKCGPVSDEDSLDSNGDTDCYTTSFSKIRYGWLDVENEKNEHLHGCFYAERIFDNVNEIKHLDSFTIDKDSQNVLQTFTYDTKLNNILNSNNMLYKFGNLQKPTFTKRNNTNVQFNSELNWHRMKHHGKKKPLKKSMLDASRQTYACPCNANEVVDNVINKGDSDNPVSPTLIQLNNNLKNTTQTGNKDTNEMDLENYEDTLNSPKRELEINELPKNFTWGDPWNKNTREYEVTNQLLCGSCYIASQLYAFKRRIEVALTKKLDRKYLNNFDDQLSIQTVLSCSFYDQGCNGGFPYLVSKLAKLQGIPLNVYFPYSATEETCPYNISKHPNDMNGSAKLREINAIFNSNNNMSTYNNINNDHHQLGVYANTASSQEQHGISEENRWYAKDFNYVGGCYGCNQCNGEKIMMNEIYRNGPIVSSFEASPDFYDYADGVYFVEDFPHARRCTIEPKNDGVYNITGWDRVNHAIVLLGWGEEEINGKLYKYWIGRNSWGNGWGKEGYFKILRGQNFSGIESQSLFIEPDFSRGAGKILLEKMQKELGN", "assay": "primary screen, percent inhibition; read by cleavage of a fluorogenic dipeptide substrate; higher = more effect of the substance", "design": "species or system P. falciparum D10 trophozoite lysates; single well", "units": {"% Inhibition @ 10 uM": "%"}, "values": [{"smiles": "O=C(COc1ccccc1Cl)N1c2ccccc2Sc2ccccc21", "% Inhibition @ 10 uM": -2}, {"smiles": "Cc1nc(-c2ccc(NC(=O)c3c(C)nc4sccn34)cc2)cs1", "% Inhibition @ 10 uM": 5.66}, {"smiles": "Cc1cccc(NC(=O)c2cccc(C(=O)Nc3cccc(C)c3)n2)c1", "% Inhibition @ 10 uM": -2.85}, {"smiles": "O=C(c1cc(-c2ccccc2)nc2ccccc12)N1CCC2(CC1)OCCO2", "% Inhibition @ 10 uM": -5.92}, {"smiles": "Cc1ccc(/C=C2\\CCC/C(=C\\c3ccc([N+](=O)[O-])cc3)C2=O)cc1", "% Inhibition @ 10 uM": 2.4}, {"smiles": "FC(F)(F)C(Oc1nc(NC2CCCCC2)nc(N2CCOCC2)n1)C(F)(F)F", "% Inhibition @ 10 uM": 3.34}, {"smiles": "N#C/C(=C\\Nc1ccccc1Cl)C(=O)NC(=O)c1ccccc1", "% Inhibition @ 10 uM": -2.87}, {"smiles": "Cc1ccc(-c2nnc3sc(NC(=O)c4ccc(F)cc4)nn23)cc1", "% Inhibition @ 10 uM": 6.19}, {"smiles": "Oc1ncnc2c1cnn2Cc1ccc(Cl)cc1Cl", "% Inhibition @ 10 uM": -1.66}, {"smiles": "CCOc1ccccc1C(=O)NCc1ccccc1OC", "% Inhibition @ 10 uM": 2.33}, {"smiles": "Cc1ccccc1NC(=O)c1sc2nc(-c3cccs3)ccc2c1N", "% Inhibition @ 10 uM": 7.48}, {"smiles": "CCOc1ccc(N2C(=O)CC(N3CCN(C4CCc5ccccc5C4)CC3)C2=O)cc1", "note": "(stereo not drawn)", "% Inhibition @ 10 uM": -8.36}, {"smiles": "Cc1cccc(C(=N)NOC(=O)CCCc2ccccc2)c1", "% Inhibition @ 10 uM": 1.96}, {"smiles": "c1ccc(CN2CCC(NCCC(c3ccccc3)c3ccccc3)CC2)cc1", "% Inhibition @ 10 uM": 1.57}, {"smiles": "CC(=O)c1sc2sc3ccccc3c2c1C", "% Inhibition @ 10 uM": 2.69}, {"smiles": "CCCC/C(=N\\c1ccc(OC)cc1)C1=C(O)CCCC1=O", "% Inhibition @ 10 uM": -1.86}, {"smiles": "COc1ccc(S(=O)(=O)Nc2ccc(S(=O)(=O)N3CCCC3)cc2)cc1OC", "% Inhibition @ 10 uM": 1.88}, {"smiles": "O=C(c1cc2ccc3cccnc3c2[nH]1)N1CCOCC1", "% Inhibition @ 10 uM": 0.36}, {"smiles": "CCOc1nc(Nc2ccc(C(C)C)cc2)nc(OCC)n1", "% Inhibition @ 10 uM": -0.582}, {"smiles": "Cn1c(=O)c2nc(-c3ccc4ccccc4n3)[nH]c2n(C)c1=O", "% Inhibition @ 10 uM": -3.33}, {"smiles": "CN1C(=O)/C(=C/c2ccccc2)S/C1=N/c1ccc(Cl)c(C(=O)O)c1", "% Inhibition @ 10 uM": 3.04}, {"smiles": "CCCn1c(CNC(C)=O)nc2ccccc21", "% Inhibition @ 10 uM": -1.73}, {"smiles": "CC(C)CCNC(=O)CNC(=O)c1cccs1", "% Inhibition @ 10 uM": 0.387}, {"smiles": "CC1=C(C(=O)N2CCOCC2)C(c2ccccc2F)C2=C(O)CCCC2=N1", "note": "(stereo not drawn)", "% Inhibition @ 10 uM": 4.99}, {"smiles": "CC(=O)c1ccc(NC(=O)c2c(-c3ccccc3)noc2C)cc1", "% Inhibition @ 10 uM": 4.37}, {"smiles": "O=S(=O)(c1ccccc1)N1N=C(c2ccccc2)CC1c1ccco1", "note": "(stereo not drawn)", "% Inhibition @ 10 uM": 9.7}, {"smiles": "Cc1ccsc1C1CC(=O)Nc2[nH]nc(-c3ccc(Cl)cc3)c21", "note": "(stereo not drawn)", "% Inhibition @ 10 uM": 8.01}, {"smiles": "Cc1cc(Cl)ccc1NC(=O)C1CCN(C(=O)c2ccc(Br)cc2)CC1", "% Inhibition @ 10 uM": 4.32}, {"smiles": "C=CCO/C(O)=C1\\C(C)=NC(SCC(=O)NC2CCCCC2)=C(C#N)C1c1ccco1", "note": "(stereo not drawn)", "% Inhibition @ 10 uM": 9.01}, {"smiles": "Cc1ccccc1OCC(=O)Nc1ccc(C(=O)c2ccccc2)cc1", "% Inhibition @ 10 uM": -10.4}, {"smiles": "CCN1C(=O)C(=CNc2cc(Cl)ccc2Cl)C(=O)N(CC)C1=O", "% Inhibition @ 10 uM": -4.75}, {"smiles": "CCC(C)C(=O)c1[nH]c2ccccc2c1C(=O)O", "note": "(stereo not drawn)", "% Inhibition @ 10 uM": 2.7}, {"smiles": "O=c1oc2cc(O)ccc2cc1-c1csnn1", "% Inhibition @ 10 uM": 8.41}, {"smiles": "COc1cccc(-c2cc(C(=O)Nc3cnn(C45CC6CC(CC(C6)C4)C5)c3)on2)c1", "% Inhibition @ 10 uM": 9.55}, {"smiles": "Cc1ccccc1Sc1nc2ccccc2[nH]1", "% Inhibition @ 10 uM": 1.79}, {"smiles": "OC(CN1CCCC1)Cn1c2ccc(Br)cc2c2cc(Br)ccc21", "note": "(stereo not drawn)", "% Inhibition @ 10 uM": 0.177}, {"smiles": "Cc1ccccc1C1c2ccccc2SC12CCN(C)CC2", "note": "(stereo not drawn)", "% Inhibition @ 10 uM": -3.9}, {"smiles": "Cc1ccc(CNC(=O)C2c3ccccc3C(=O)N3CCc4ccccc4C23)o1", "note": "(stereo not drawn)", "% Inhibition @ 10 uM": -3.12}, {"smiles": "CCOC(=O)C1=C(NC(=O)c2ccc(C)cc2)S/C(=C\\C=C\\c2ccccc2)C1=O", "% Inhibition @ 10 uM": 1.52}, {"smiles": "COc1cccc(C2C(C(=O)c3ccccc3)=C(O)C(=O)N2CCC(=O)O)c1", "note": "(stereo not drawn)", "% Inhibition @ 10 uM": -9.6}, {"smiles": "Cc1cc(/C=C2/C(=N)N3C(=NC2=O)SN=C3S(=O)(=O)C(C)C)c(C)n1-c1ccccc1F", "% Inhibition @ 10 uM": 6.59}, {"smiles": "Clc1ccc(Cn2c(CN3CCCC3)nc3ccccc32)cc1", "% Inhibition @ 10 uM": 1.26}, {"smiles": "Cc1cc(NC(=O)NC(=O)c2cccc(OC(F)(F)C(F)F)c2)no1", "% Inhibition @ 10 uM": 0.475}, {"smiles": "CCn1c2ccccc2c2cc(NC(=O)c3cccnc3)ccc21", "% Inhibition @ 10 uM": -5.16}, {"smiles": "CCc1ccc(-n2c(N)c(C(=O)OC)c3nc4ccccc4nc32)cc1", "% Inhibition @ 10 uM": 3.59}, {"smiles": "COc1ccc(-c2cc(C(=O)N3CCN(C(=O)c4ccccc4F)CC3)[nH]n2)cc1", "% Inhibition @ 10 uM": -1.87}, {"smiles": "Cc1nnc(NC(=O)CSc2ncnc3ccccc23)s1", "% Inhibition @ 10 uM": -9.16}, {"smiles": "CC(C)N(C(=O)c1ccccc1C(=O)O)C(C)C", "% Inhibition @ 10 uM": 3.98}, {"smiles": "Cn1c(=O)[nH]c(=O)c2[nH]c(-c3ccc(O)cc3)nc21", "% Inhibition @ 10 uM": -1.72}, {"smiles": "Fc1ccc(N2CCN(CC(c3ccccc3)c3ccccc3)CC2)cc1", "% Inhibition @ 10 uM": 4.8}, {"smiles": "O[C@H]1CC[C@H](NC2CCSC2)CC1", "note": "(stereo partly drawn)", "% Inhibition @ 10 uM": 1.88}, {"smiles": "COCCNC(=O)CSc1cc(Cl)nc2ccc(C)cc12", "% Inhibition @ 10 uM": 5.88}, {"smiles": "COC(=O)c1sccc1NC(=O)c1cc2c(s1)-c1c(C)cccc1OC2", "% Inhibition @ 10 uM": -3.08}, {"smiles": "Cc1cc(C)n(CCc2nc3c4ccccc4nc(SCC(=O)N4CC(C)CC(C)C4)n3n2)n1", "note": "(stereo not drawn)", "% Inhibition @ 10 uM": 0.4}, {"smiles": "COc1ccc2c(c1)nc(NCCO)n2C", "% Inhibition @ 10 uM": 3.01}, {"smiles": "CC1=C(C(=O)Nc2ccccc2F)C(c2cccs2)C2=C(O)CCCC2=N1", "note": "(stereo not drawn)", "% Inhibition @ 10 uM": -6.36}, {"smiles": "CCC1=NN(C(=O)c2cccc(C)c2)C(O)(C(F)(F)F)C1", "note": "(stereo not drawn)", "% Inhibition @ 10 uM": 4.05}, {"smiles": "CCOC(=O)N1CCC(NC(=O)Cn2ncc3c4ccccc4n(C)c3c2=O)CC1", "% Inhibition @ 10 uM": 6.02}, {"smiles": "COc1ccc(-c2csc(/C(C#N)=C/c3cccc(F)c3)n2)cc1", "% Inhibition @ 10 uM": 1.41}, {"smiles": "CS(=O)(=O)N1CCCC(C(=O)NCc2ccc(F)cc2Cl)C1", "note": "(stereo not drawn)", "% Inhibition @ 10 uM": -1.21}, {"smiles": "CCc1nc2[nH]nc(N)c2c2c1COC(C)(C)C2", "% Inhibition @ 10 uM": -0.872}, {"smiles": "O=C(NCc1cccnc1)c1ccc(Cl)c(Cl)c1", "% Inhibition @ 10 uM": 5.99}, {"smiles": "O=C(CSCc1ccccc1Cl)Nc1ccc2c(c1)C(=O)NC2=O", "% Inhibition @ 10 uM": 3.99}, {"smiles": "CC(C)c1ccc(CN2CCCN(C)CC2)cc1", "% Inhibition @ 10 uM": 3.1}, {"smiles": "CCOc1ccccc1N1CCN(Cc2ccc(OC)c(C)c2)CC1", "% Inhibition @ 10 uM": -3.65}, {"smiles": "Cc1cc(Cl)ccc1OCC(=O)n1cnc2ccccc21", "% Inhibition @ 10 uM": -1.1}]}]}
